From the supplement of paper PMC12217912
The other results are listed elsewhere or left out. The full chains were built here from the parent and the listed change. Inactive controls read about 0.05.

B1: TEV protease; numbered along this chain (parent)
chain: MGESLFKGPRDYNPISSSICHLTNESDGHTTSLYGIGFGPFIITNKHLFRRNNGTLVVQSLHGVFKVKDTTTLQQHLVDGRDMIIIRMPKDFPPFPQKLKFREPQREERICLVTTNFQTKSMSSMVSDTSCTFPSGDGIFWKHWIQTKDGQCGSPLVSTRDGFIVGIHSASNFTNTNNYFTSVPKNFMELLTNQEAQQWVSGWRLNADSVLWGGHKVFMVKPEEPFQPVKEATQL

Variants of: B1
Assay: raw area under fraction-flipped curve 0-4 h after induction (AUC4h, not background-subtracted), DNA-recorder readout of cleavage of the substrate (dimensionless); higher = more cleavage of the substrate by the protease variant
Conditions: temperature: 34 °C; time window: 0-4 h after rhamnose induction
Protocol: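 In vivo DNA recorder in E. coli TOP10(DE3) ΔrhaA at 34 °C. Each TEVp single-site mutant (parent TEVp 0) is paired with a single-site variant of the 7-mer TEVs (canonical ENLYFQ|S). The substrate sits between flexible linkers in a Bxb1-sfGFP-TEVs-SsrA fusion, so cleavage stabilises Bxb1 and speeds flipping of a recombination array, read by NGS. The value is the raw area under the fraction-flipped curve over 0-4 h after rhamnose induction (AUC4h), with ≥20 reads per time point. It is not background-subtracted; inactive controls average about 0.047.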
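Also: Bxb1 expression induced with 0.2% (w/v) L-rhamnose at OD600 near 0.5, cultures sampled hourly, flipped fraction per protease–substrate barcode pair counted by paired-end Illumina sequencing.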

Variant	area with substrate ENLYFAS	area with substrate ENLYFCS	area with substrate ENLYFDS	area with substrate ENLYFES	area with substrate ENLYFFS	area with substrate ENLYFGS	area with substrate ENLYFHS	area with substrate ENLYFIS	area with substrate ENLYFKS	area with substrate ENLYFPS	area with substrate ENLYFTS	area with substrate ENLYFVS	area with substrate ENLYFWS	area with substrate ENLYFLS	area with substrate ENLYFMS	area with substrate ENLYFNS	area with substrate ENLYFSS	area with substrate ENLYFYS	area with substrate ENLYFRS
V217Q	0.0517	0.0613	0.0542	0.0544	0.0527	0.056	0.0705	0.0578	0.067	0.0585	0.0462	0.0547	0.046						
N177A	0.054	0.0817	0.0678	0.067	0.0692		0.0655	0.0603		0.06	0.0759		0.0601	0.0616	0.0656	0.0552	0.0439	0.0655	
N177H	0.0552	0.0614	0.0709	0.0552	0.0746		0.0475	0.0524	0.0618	0.0625	0.0647	0.0696	0.0516		0.0605		0.0687		0.0521
K230M	0.058	0.0644		0.08	0.0656			0.0569		0.0635	0.0602		0.054	0.0619	0.0666	0.0561	0.067	0.064	0.0555
K230E	0.0596		0.0701	0.0563	0.07		0.0518	0.0511	0.0651	0.0617	0.04		0.0642	0.0462					0.0404
Q227I	0.0593	0.0616	0.0676		0.0708	0.0686		0.0801	0.0609	0.0653	0.0459				0.0645	0.0691			
T233H	0.057		0.0506	0.0621				0.0578		0.058	0.0667		0.0737			0.0653	0.0558		0.0646
T233G	0.05		0.044	0.0737	0.0757	0.0543	0.0393	0.0806	0.0652	0.0618	0.0552		0.0627	0.0656	0.0477		0.0798	0.0719	0.0555
W212K	0.0455	0.0676		0.0592	0.054	0.0672		0.0637	0.0606	0.0604	0.0503	0.0374	0.055	0.0523	0.0436			0.051	
Q197K	0.0479	0.0503	0.0645	0.0604	0.0545		0.0556	0.0655	0.0992	0.0518	0.0563	0.0564	0.0601		0.0745	0.0721			0.0535
Q197G	0.0629	0.065		0.0669	0.0621	0.0568	0.0581	0.0509	0.0594		0.0478	0.0567	0.0566		0.0523		0.0615	0.0712	
F187E	0.049		0.0592	0.0559	0.0632	0.0382		0.0517	0.0509	0.0611	0.0463	0.0579	0.0496			0.0447		0.048	0.0585
